# From the supplement of paper PMC8728848
# This is one part of the list.
# How the values were obtained:
# Assay in all cases: glycan array binding signal (z-score within array); higher = stronger binding
# Settings in all cases: glycan notation: IUPAC condensed, linker removed
# [1] = biological target: Gal(b1-4)GlcNAc(b1-2)[Gal(b1-4)GlcNAc(b1-6)]Man(a1-6)[GlcNAc(b1-4)][Gal(b1-4)GlcNAc(b1-2)Man(a1-3)]Man(b1-4)GlcNAc(b1-4)GlcNAc
# Outline: (§1)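 From the Consortium for Functional Glycomics database, 3228 arrays were curated, keeping only those whose protein sequence was available. Binding is given as a within-array Z-score averaged across arrays sharing a protein sequence and across linkers. Negative Z-scores can be read as non-binding.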
# [2] = biological target: Gal(b1-4)GlcNAc(b1-2)[Gal(b1-4)GlcNAc(b1-6)]Man(a1-6)[GlcNAc(b1-4)][Gal(b1-4)GlcNAc(b1-2)[Gal(b1-4)GlcNAc(b1-4)]Man(a1-3)]Man(b1-4)GlcNAc(b1-4)[Fuc(a1-6)]GlcNAc
# Outline: as §1
# [3] = biological target: Gal(b1-4)GlcNAc(b1-3)Gal(b1-3)GalNAc
# Outline: as §1
# [4] = biological target: Gal(b1-4)GlcNAc(b1-3)Gal(b1-3)GlcNAc
# Outline: as §1
# [5] = biological target: Gal(b1-4)GlcNAc(b1-3)Gal(b1-4)Glc
# Outline: as §1
# [6] = biological target: Gal(b1-4)GlcNAc(b1-3)Gal(b1-4)GlcNAc
# Outline: as §1
# [7] = biological target: Gal(b1-4)GlcNAc(b1-3)Gal(b1-4)GlcNAc(b1-2)Man(a1-3)[Gal(b1-4)GlcNAc(b1-3)Gal(b1-4)GlcNAc(b1-2)Man(a1-6)]Man(b1-4)GlcNAc(b1-4)GlcNAc
# Outline: as §1
# [8] = biological target: Gal(b1-4)GlcNAc(b1-3)Gal(b1-4)GlcNAc(b1-2)Man(a1-3)[Gal(b1-4)GlcNAc(b1-3)Gal(b1-4)GlcNAc(b1-2)Man(a1-6)]Man(b1-4)GlcNAc(b1-4)[Fuc(a1-6)]GlcNAc
# Outline: as §1
# [9] = biological target: Gal(b1-4)GlcNAc(b1-3)Gal(b1-4)GlcNAc(b1-2)[Gal(b1-4)GlcNAc(b1-3)Gal(b1-4)GlcNAc(b1-6)]Man(a1-6)[Gal(b1-4)GlcNAc(b1-3)Gal(b1-4)GlcNAc(b1-2)Man(a1-3)]Man(b1-4)GlcNAc(b1-4)GlcNAc
# Outline: as §1
# [10] = biological target: Gal(b1-4)GlcNAc(b1-3)Gal(b1-4)GlcNAc(b1-2)[Gal(b1-4)GlcNAc(b1-3)Gal(b1-4)GlcNAc(b1-6)]Man(a1-6)[Gal(b1-4)GlcNAc(b1-3)Gal(b1-4)GlcNAc(b1-2)Man(a1-3)]Man(b1-4)GlcNAc(b1-4)[Fuc(a1-6)]GlcNAc
# Outline: as §1
# [11] = biological target: Gal(b1-4)GlcNAc(b1-3)Gal(b1-4)GlcNAc(b1-3)Gal(b1-4)GlcNAc
# Outline: as §1
# [12] = biological target: Gal(b1-4)GlcNAc(b1-3)Gal(b1-4)GlcNAc(b1-3)Gal(b1-4)GlcNAc(b1-2)Man(a1-3)[Gal(b1-4)GlcNAc(b1-3)Gal(b1-4)GlcNAc(b1-3)Gal(b1-4)GlcNAc(b1-2)Man(a1-6)]Man(b1-4)GlcNAc(b1-4)GlcNAc
# Outline: as §1
# [13] = biological target: Gal(b1-4)GlcNAc(b1-3)Gal(b1-4)GlcNAc(b1-3)Gal(b1-4)GlcNAc(b1-2)Man(a1-3)[Gal(b1-4)GlcNAc(b1-3)Gal(b1-4)GlcNAc(b1-3)Gal(b1-4)GlcNAc(b1-2)Man(a1-6)]Man(b1-4)GlcNAc(b1-4)[Fuc(a1-6)]GlcNAc
# Outline: as §1
# [14] = biological target: Gal(b1-4)GlcNAc(b1-3)Gal(b1-4)GlcNAc(b1-3)Gal(b1-4)GlcNAc(b1-2)[Gal(b1-4)GlcNAc(b1-3)Gal(b1-4)GlcNAc(b1-3)Gal(b1-4)GlcNAc(b1-6)]Man(a1-6)[Gal(b1-4)GlcNAc(b1-3)Gal(b1-4)GlcNAc(b1-3)Gal(b1-4)GlcNAc(b1-2)Man(a1-3)]Man(b1-4)GlcNAc(b1-4)[Fuc(a1-6)]GlcNAc
# Outline: as §1
# [15] = biological target: Gal(b1-4)GlcNAc(b1-3)Gal(b1-4)GlcNAc(b1-3)Gal(b1-4)GlcNAc(b1-3)Gal(b1-4)GlcNAc(b1-2)Man(a1-3)[Gal(b1-4)GlcNAc(b1-3)Gal(b1-4)GlcNAc(b1-3)Gal(b1-4)GlcNAc(b1-3)Gal(b1-4)GlcNAc(b1-2)Man(a1-6)]Man(b1-4)GlcNAc(b1-4)GlcNAc
# Outline: as §1
# [16] = biological target: Gal(b1-4)GlcNAc(b1-3)Gal(b1-4)GlcNAc(b1-3)Gal(b1-4)GlcNAc(b1-3)Gal(b1-4)GlcNAc(b1-2)Man(a1-3)[Gal(b1-4)GlcNAc(b1-3)Gal(b1-4)GlcNAc(b1-3)Gal(b1-4)GlcNAc(b1-3)Gal(b1-4)GlcNAc(b1-2)Man(a1-6)]Man(b1-4)GlcNAc(b1-4)[Fuc(a1-6)]GlcNAc
# Outline: as §1
# [17] = biological target: Gal(b1-4)GlcNAc(b1-3)Gal(b1-4)GlcNAc(b1-3)Gal(b1-4)GlcNAc(b1-3)Gal(b1-4)GlcNAc(b1-2)[Gal(b1-4)GlcNAc(b1-3)Gal(b1-4)GlcNAc(b1-3)Gal(b1-4)GlcNAc(b1-3)Gal(b1-4)GlcNAc(b1-6)]Man(a1-6)[Gal(b1-4)GlcNAc(b1-3)Gal(b1-4)GlcNAc(b1-3)Gal(b1-4)GlcNAc(b1-3)Gal(b1-4)GlcNAc(b1-2)Man(a1-3)]Man(b1-4)GlcNAc(b1-4)[Fuc(a1-6)]GlcNAc
# Outline: as §1
# [18] = biological target: Gal(b1-4)GlcNAc(b1-3)Gal(b1-4)GlcNAc(b1-3)Gal(b1-4)GlcNAc(b1-3)Gal(b1-4)GlcNAc(b1-3)Gal(b1-4)GlcNAc(b1-2)Man(a1-3)[Gal(b1-4)GlcNAc(b1-3)Gal(b1-4)GlcNAc(b1-3)Gal(b1-4)GlcNAc(b1-3)Gal(b1-4)GlcNAc(b1-3)Gal(b1-4)GlcNAc(b1-2)Man(a1-6)]Man(b1-4)GlcNAc(b1-4)GlcNAc
# Outline: as §1
# [19] = biological target: Gal(b1-4)GlcNAc(b1-3)Gal(b1-4)GlcNAc(b1-3)Gal(b1-4)GlcNAc(b1-3)Gal(b1-4)GlcNAc(b1-3)Gal(b1-4)GlcNAc(b1-2)Man(a1-3)[Gal(b1-4)GlcNAc(b1-3)Gal(b1-4)GlcNAc(b1-3)Gal(b1-4)GlcNAc(b1-3)Gal(b1-4)GlcNAc(b1-3)Gal(b1-4)GlcNAc(b1-2)Man(a1-6)]Man(b1-4)GlcNAc(b1-4)[Fuc(a1-6)]GlcNAc
# Outline: as §1
# [20] = biological target: Gal(b1-4)GlcNAc(b1-3)Gal(b1-4)GlcNAc(b1-3)Gal(b1-4)GlcNAc(b1-3)Gal(b1-4)GlcNAc(b1-3)Gal(b1-4)GlcNAc(b1-2)[Gal(b1-4)GlcNAc(b1-3)Gal(b1-4)GlcNAc(b1-3)Gal(b1-4)GlcNAc(b1-3)Gal(b1-4)GlcNAc(b1-3)Gal(b1-4)GlcNAc(b1-6)]Man(a1-6)[Gal(b1-4)GlcNAc(b1-3)Gal(b1-4)GlcNAc(b1-3)Gal(b1-4)GlcNAc(b1-3)Gal(b1-4)GlcNAc(b1-3)Gal(b1-4)GlcNAc(b1-2)Man(a1-3)]Man(b1-4)GlcNAc(b1-4)[Fuc(a1-6)]GlcNAc
# Outline: as §1
# [21] = biological target: Gal(b1-4)GlcNAc(b1-3)Gal(b1-4)GlcNAc(b1-3)Gal(b1-4)GlcNAc(b1-3)Gal(b1-4)GlcNAc(b1-3)Gal(b1-4)GlcNAc(b1-3)Gal(b1-4)GlcNAc(b1-2)Man(a1-3)[Gal(b1-4)GlcNAc(b1-3)Gal(b1-4)GlcNAc(b1-3)Gal(b1-4)GlcNAc(b1-3)Gal(b1-4)GlcNAc(b1-3)Gal(b1-4)GlcNAc(b1-3)Gal(b1-4)GlcNAc(b1-2)Man(a1-6)]Man(b1-4)GlcNAc(b1-4)GlcNAc
# Outline: as §1
# [22] = biological target: Gal(b1-4)GlcNAc(b1-3)Gal(b1-4)GlcNAc(b1-3)GalNAc
# Outline: as §1
# [23] = biological target: Gal(b1-4)GlcNAc(b1-3)Gal(b1-4)GlcNAc(b1-3)[Gal(b1-4)GlcNAc(b1-3)Gal(b1-4)GlcNAc(b1-6)]GalNAc
# Outline: as §1
binder,measurement,setting,value
EULS2 M4 (Oryza sativa) (protein) MVYCRANPNYAMTARNGAVVLAPANPKDEYQHWIKDMRWSTSIKDEEGYPAFALVNKATGQAIKHSLGQSHPVRLVPYNPEVMDESVLWTESRDVGNGFRCIRMVNNIYLNFDAFHGDKYHGGVRDGTDIVLWKWCEGDSLRWKIQPYYILEQKLISEEDLNSAVDHHHHHH,glycan array binding signal (z-score),[1],-0.504
same,glycan array binding signal (z-score),[2],0.562
same,glycan array binding signal (z-score),[3],-0.272
same,glycan array binding signal (z-score),[4],-0.312
same,glycan array binding signal (z-score),[5],-0.382
same,glycan array binding signal (z-score),[6],-0.418
same,glycan array binding signal (z-score),[7],0.42
same,glycan array binding signal (z-score),[8],-0.23
same,glycan array binding signal (z-score),[9],6.97
same,glycan array binding signal (z-score),[10],0.005
same,glycan array binding signal (z-score),[11],-0.23
same,glycan array binding signal (z-score),[12],0.791
same,glycan array binding signal (z-score),[13],-0.496
same,glycan array binding signal (z-score),[14],0.009
same,glycan array binding signal (z-score),[15],-0.04
same,glycan array binding signal (z-score),[16],-0.26
same,glycan array binding signal (z-score),[17],0.025
same,glycan array binding signal (z-score),[18],-0.273
same,glycan array binding signal (z-score),[19],0.302
same,glycan array binding signal (z-score),[20],4.92
same,glycan array binding signal (z-score),[21],-0.344
same,glycan array binding signal (z-score),[22],0.083
same,glycan array binding signal (z-score),[23],0.569
